Assay results taken from PubChem BioAssay AID652104 (National Center for Advancing Translational Sciences (NCATS), 2013).
Out of some 410,000 compounds screened, about 7,200 (1.8%) were called active. This list was built around the results that the source calls inconclusive (neither active nor inactive); the mix of calls is not that of the screen. Calls follow the shape of the dose curve; as a rule, active = well fitted activation curve with a large enough effect; inconclusive = small, poorly fitted or top-dose-only effect, or another doubt; inactive = no such curve, though single readings can be large or run the other way. No potency is given beside an inconclusive call; the fits are too rough.

Assay: qHTS of TDP-43 Inhibitors; also: nearly all actives have a fitted effect of over 50% in size; as to growth rescue (activation): % of control where 0% means no effect
Details: TDP-43 expressing yeast growth rescue, BacTiter-Glo, 24 h; growth rescue (activation): at 46.1 µM (top of the series) unless noted
Summary of the method: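 In this qHTS, compounds that restore growth of yeast expressing TDP-43 appear as activators. Cells (OD600=0.02, galactose medium, raffinose-pregrown) are incubated with compound 24 hr at 30 deg C and growth is quantified by BacTiter-Glo.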
Potency is read from the fitted curve at half-maximal effect; tags tell the direction and shape of the fitted curve.

Structure (SMILES) | Potency | growth rescue (activation)
COc1ccccc1NC(=O)CSc1nnc(NC(=O)Nc2ccc(C)cc2)s1 | inconclusive [activator, partial curve] | 
O=C(NC12CC3CC(CC(C3)C1)C2)c1ccc(Br)o1 | inactive | 
Cc1ccc([N+](=O)[O-])cc1S(=O)(=O)N1CCC(C)CC1 | active: 15.8 µM | 
c1ccc(-c2nnc(SCCC3OCCCO3)o2)cc1 | inconclusive [activator, partial curve] | 
CCCCN1C(=O)c2[nH]nc(-c3ccccc3O)c2C1c1ccc(OCc2ccccc2)cc1 (configuration not stated) | inactive | 
O=C(NCc1ccc(C(F)(F)F)cc1)c1ccc(-c2cccnc2)c2ccoc12 | active: 12.6 µM | 
CC1CCN(C(=O)CSc2nnc(-c3ccccc3)o2)CC1 | inconclusive [activator, partial curve] | 
CN(C(=O)CSc1nc(C2CCCC2)nc2c1c(=O)n(C)c(=O)n2C)c1ccccc1 |  | inactive: 19% [at 9.22 µM]
CC(C)Oc1cccc(C(=O)NC(=S)N2CCN(c3ccc(C(F)(F)F)cc3[N+](=O)[O-])CC2)c1 | inconclusive [activator, partial curve, poor fit] | 
CC(=O)Nc1ccc(N2C(C(C)=O)=NN(c3ccc(Cl)cc3)C2c2sccc2C)cc1 (configuration not stated) | inconclusive [activator, single point] | 
COc1ccc(-n2nc([N+](=O)[O-])c(=NCCc3ccc(C)cc3)n2O)cc1 | inconclusive [activator, partial curve] | 
CC1CCN(c2oc(-c3ccc(F)cc3)nc2C#N)CC1 | inconclusive [activator, single point] | 
COc1ccc(-c2nnc3n(CCc4ccccc4)c(=O)c4ccccc4n23)c(OC)c1 | inconclusive [activator, partial curve] | 
COc1ccc(NC(=O)c2cc3n(n2)C(C(F)(F)F)CC(c2ccc4c(c2)OCO4)N3)cc1OC (configuration not stated) | inconclusive [activator, single point] | 
CC(C)CCNS(=O)(=O)c1ccc(N2CCCCS2(=O)=O)cc1 |  | inactive: 15.7% [at 9.22 µM]
COc1ccc2c(c1)CCc1cn3nc(C)cc3nc1-2 | inconclusive [activator, single point] | 
Cc1cccc(N2CCN(C(=O)c3cn4ccccc4n3)CC2C)c1 (configuration not stated) | inconclusive [activator, single point] | 
O=C1CCC(=O)N1OCCCOc1ccc(Br)cc1Cl | inconclusive [activator, partial curve] | 
Cc1cccc(N2CCN(C(=O)c3ccc4c(Cl)c5c(nc4c3)CCCC5)CC2C)c1 (configuration not stated) | inconclusive [activator, partial curve] | 
O=C(Nc1ccon1)Nc1ccc(Cl)cc1Cl | inconclusive [activator, full curve] | 
COc1ccc(OC)c(C(=O)Nc2ccc3[nH]ccc3c2)c1 | inconclusive [activator, partial curve] | 
O=C(Nc1ccc(Cl)c(Cl)c1)N1CCOCC1 | inconclusive [activator, partial curve] | 
COc1ccc(Br)cc1C(=O)Nc1cccc(NC(=O)c2ccco2)c1 | active: 8.91 µM | 

Structure (SMILES) | Potency | growth rescue (activation)
CC1CCN(c2nc3nonc3nc2Nc2ccc(F)cc2)CC1 | inconclusive [activator, single point] | 
CN1C(=O)/C(=C2\SC(=S)N(NC(=O)c3cccnc3)C2=O)c2ccccc21 | inconclusive [activator, partial curve] | 
Oc1ccc(/C=N/n2c3ccccc3c3ccccc32)cc1 | inconclusive [activator, single point] | 
COc1ccc(C(=O)NC(=S)N2CCC(C)CC2)cc1Br | inconclusive [activator, single point] | 
O=C1NC2(CCc3ccccc3C2)C(=O)N1CCOc1cccc(Cl)c1 (configuration not stated) | active: 20 µM | 
CCN(C(=O)COC(=O)c1ccc(O)cc1)c1cccc2ccccc12 | inconclusive [activator, single point] | 
CN(c1ccccc1C(=O)N1CCN(c2ccccc2F)CC1)S(=O)(=O)c1ccccc1 | inconclusive [activator, partial curve] | 
O=C(CCN1C(=O)/C(=C/c2ccccc2Cl)SC1=S)NC1C=CS(=O)(=O)C1 (configuration not stated) | inactive | 
CCCSc1nc(NCc2ccco2)c2c3c(sc2n1)COC(C)(C)C3 | active: 20 µM | 
COc1ccc(/C=N/NC(=O)c2ccn[nH]2)cc1COc1ccc(Cl)cc1Cl | inconclusive [activator, single point] | 
CC1CC(C)CN(C(=O)C2CCCN(c3ncnc4c3nc3n4CCCCC3)C2)C1 (configuration not stated) | inconclusive [activator, single point] | 
COc1ccc(C(=O)COC(=O)c2ccc(Cl)nc2)c(OC)c1 | inconclusive [activator, partial curve] | 
Cc1cc(C)c(S(=O)(=O)NCC(=O)NCc2ccccn2)c(C)c1 | inactive | 
COc1cccc(C(=O)NC(=NCCc2c[nH]c3ccc(OC)cc23)Nc2nc(C)cc(C)n2)c1 | inconclusive [activator, single point] | 
S=C(NCC1CCCO1)N1CCN(c2nc(-c3ccc(Cl)cc3)cs2)CC1 (configuration not stated) | inconclusive [activator, single point] | 
CCN1C(C(=O)c2ccccc2)=C(OC(=O)COc2ccc(OC)cc2)c2ccccc2S1(=O)=O |  | inconclusive: -84.6% [activator]
COc1ccccc1NC(=O)C1CCN(c2ncccn2)CC1 | inconclusive [activator, single point] | 
CCCCOCCCNC(=O)C[C@@H]1C[C@@]2(C(=O)OC)CC(C)(C)CC=C2N(Cc2ccc3c(c2)OCO3)C1=O | inconclusive [activator, partial curve, poor fit] | 
Clc1ccccc1NN(Cc1ccncc1)c1ccccc1Cl | inconclusive [activator, single point] | 
CC(C)C(=O)Nc1c(O)c2ccccc2[nH]c1=O | inconclusive [activator, single point] | 
O=c1oc2ccccc2cc1-c1csc(Nc2ccc(O)cc2)n1 | inconclusive [activator, partial curve] | 
Cc1cc(Cl)ccc1OCCCC(=O)OCC(=O)c1c(N)n(C)c(=O)n(C)c1=O | inconclusive [activator, single point] | 
CCOC(=O)c1cnn(-c2ccc(Cl)cc2)c1C1CCN(C(=O)OC(C)(C)C)CC1 | inconclusive [activator, single point] | 

Structure (SMILES) | Potency | growth rescue (activation)
Cc1cc(C)c(C#N)c(Oc2ccccc2Br)n1 | inconclusive [activator, single point] | 
O=C(C=Cc1cccc(Cl)c1)c1ccccc1 | inconclusive [activator, single point] | 
N#CCSc1nccc(-c2cc(Cl)sc2Cl)n1 | inconclusive [activator, full curve] | 
COc1ccc(N(CC(C)C)S(=O)(=O)c2nnc(NC(=O)c3cccs3)s2)cc1 | inactive | 
Cc1cc2cc3c(=O)[nH]c(=O)nc-3n(CC(O)C(O)C(O)CO)c2cc1C (configuration not stated) | inconclusive [activator, partial curve] | 
CCOC(=O)CCn1cnc2onc(-c3cc(OC)ccc3Cl)c2c1=O | inconclusive [activator, partial curve] | 
S=C(NC1CCCCC1)NN1CCCCCC1 | inconclusive [activator, single point] | 
c1ccc(CSc2ncnc3ccccc23)cc1 | inconclusive [activator, single point] | 
CC(=O)N(C(C)=O)c1ncnc2c1c(-c1ccc(Cl)cc1)nn2C(C)(C)C | inactive | 
COc1ccc(-n2c(C)cc(C(=O)COC(=O)Cc3n[nH]c(=O)c4ccccc34)c2C)cc1 | inconclusive [activator, single point] | 
Cc1cccc(C)c1NC(=O)C(=O)NCC(c1ccc2c(c1)OCO2)N1CCOCC1 (configuration not stated) | inactive | 
Cc1ccc2nc(-c3cccc(Br)c3)c(Cc3cccc(Cl)c3)n2c1 | active: 35.5 µM | 
O=C1CC(=O)N(CCc2ccccc2)C(=O)N1CCc1ccccc1 | inconclusive [activator, single point] | 
COc1nc(Nc2ccc(OC)c(Cl)c2)nc(OC)n1 | inconclusive [activator, partial curve] | 
O=C(CCNS(=O)(=O)c1ccccc1F)OCc1ccccc1Cl | inconclusive [activator, single point] | 
Cc1ccc(C(=O)N2CCc3cc(CNC(=O)c4ccc(Br)cc4)ccc32)cc1 | inactive | 
O=S(=O)(NCCc1ccc(Cl)cc1)c1cccs1 | inconclusive [activator, partial curve] | 
Cc1ccc(C(=O)Nc2ccccc2)cc1S(=O)(=O)Nc1ccc(Br)cc1 | active: 12.6 µM | 
CC1(c2nnc(-c3cccc(Cl)c3)o2)CC(c2ccc(F)cc2)=NO1 (configuration not stated) | inconclusive [activator, single point] | 
FC(F)(F)c1cc(-c2ccccc2)nc(NCC2CCCO2)n1 (configuration not stated) | active: 12.6 µM | 
C/C(=N\NC(N)=S)c1ccc(Cl)s1 | inconclusive [activator, single point] | 
